According to PMC10040399:
Where two headings read alike, the source gives them in different places. These are yes or no findings as the source states them, for the method shown. Binding seen in cells or lysates may run through a third protein. Some binding calls cover weakened binding; strength is not graded here. For some of these results: Sequences can lack the tags named with a protein. One block for each molecule: values may come before it.

Protein sequences, listed by entry. Tags and fused reporters are not part of them.
UniProt Q96EQ9: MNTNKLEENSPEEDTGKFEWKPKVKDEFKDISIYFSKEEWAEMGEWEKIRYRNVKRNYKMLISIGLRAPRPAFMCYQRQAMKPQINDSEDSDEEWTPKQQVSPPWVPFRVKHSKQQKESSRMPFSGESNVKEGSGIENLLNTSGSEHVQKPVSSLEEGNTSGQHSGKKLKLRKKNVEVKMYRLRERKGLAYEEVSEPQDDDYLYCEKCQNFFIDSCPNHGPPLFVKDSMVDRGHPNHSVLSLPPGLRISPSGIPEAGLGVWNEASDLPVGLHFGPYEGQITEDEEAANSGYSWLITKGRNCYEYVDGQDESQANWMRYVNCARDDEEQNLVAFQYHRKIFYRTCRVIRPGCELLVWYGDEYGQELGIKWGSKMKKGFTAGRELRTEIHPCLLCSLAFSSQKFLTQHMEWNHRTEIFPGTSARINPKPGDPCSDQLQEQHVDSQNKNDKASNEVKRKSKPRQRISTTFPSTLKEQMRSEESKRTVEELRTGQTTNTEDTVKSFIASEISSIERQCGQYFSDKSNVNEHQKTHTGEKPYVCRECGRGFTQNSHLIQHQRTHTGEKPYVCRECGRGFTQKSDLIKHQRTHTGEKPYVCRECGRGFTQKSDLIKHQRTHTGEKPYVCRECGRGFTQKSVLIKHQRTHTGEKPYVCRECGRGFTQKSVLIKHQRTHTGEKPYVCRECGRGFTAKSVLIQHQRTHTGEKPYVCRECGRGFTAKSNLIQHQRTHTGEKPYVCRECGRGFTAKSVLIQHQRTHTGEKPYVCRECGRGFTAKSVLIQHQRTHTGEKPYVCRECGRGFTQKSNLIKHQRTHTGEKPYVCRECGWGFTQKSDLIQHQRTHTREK
UniProt P56959: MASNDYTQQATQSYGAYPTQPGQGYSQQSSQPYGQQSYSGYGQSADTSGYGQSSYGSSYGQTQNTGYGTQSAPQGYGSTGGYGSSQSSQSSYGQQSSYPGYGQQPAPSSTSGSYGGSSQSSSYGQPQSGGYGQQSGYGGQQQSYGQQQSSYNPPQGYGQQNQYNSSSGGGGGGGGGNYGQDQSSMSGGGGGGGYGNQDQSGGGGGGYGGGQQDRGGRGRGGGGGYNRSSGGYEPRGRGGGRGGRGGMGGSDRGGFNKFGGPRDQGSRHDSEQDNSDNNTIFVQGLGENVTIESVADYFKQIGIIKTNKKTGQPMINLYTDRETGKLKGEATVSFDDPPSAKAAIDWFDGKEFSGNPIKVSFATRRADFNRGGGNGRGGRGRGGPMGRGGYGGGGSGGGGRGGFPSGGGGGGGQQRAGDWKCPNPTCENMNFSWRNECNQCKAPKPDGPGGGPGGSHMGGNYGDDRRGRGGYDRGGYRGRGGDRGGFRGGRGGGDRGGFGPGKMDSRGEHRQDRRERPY
UniProt P35637: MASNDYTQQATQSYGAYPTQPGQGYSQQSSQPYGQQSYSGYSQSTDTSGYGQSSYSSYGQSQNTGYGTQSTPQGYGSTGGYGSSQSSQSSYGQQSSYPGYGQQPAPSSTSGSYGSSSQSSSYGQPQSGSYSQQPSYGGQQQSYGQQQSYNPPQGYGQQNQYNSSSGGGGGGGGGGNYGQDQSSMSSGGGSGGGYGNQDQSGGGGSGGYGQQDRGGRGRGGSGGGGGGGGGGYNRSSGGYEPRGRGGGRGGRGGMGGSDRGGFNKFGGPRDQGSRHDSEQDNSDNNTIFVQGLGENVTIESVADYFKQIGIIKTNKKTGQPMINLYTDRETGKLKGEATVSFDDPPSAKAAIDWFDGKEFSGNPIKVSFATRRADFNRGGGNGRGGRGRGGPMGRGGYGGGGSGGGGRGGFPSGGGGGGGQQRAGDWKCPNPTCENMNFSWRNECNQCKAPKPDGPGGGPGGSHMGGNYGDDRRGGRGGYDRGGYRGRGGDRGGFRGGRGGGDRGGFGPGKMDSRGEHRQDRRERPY
UniProt Q61545: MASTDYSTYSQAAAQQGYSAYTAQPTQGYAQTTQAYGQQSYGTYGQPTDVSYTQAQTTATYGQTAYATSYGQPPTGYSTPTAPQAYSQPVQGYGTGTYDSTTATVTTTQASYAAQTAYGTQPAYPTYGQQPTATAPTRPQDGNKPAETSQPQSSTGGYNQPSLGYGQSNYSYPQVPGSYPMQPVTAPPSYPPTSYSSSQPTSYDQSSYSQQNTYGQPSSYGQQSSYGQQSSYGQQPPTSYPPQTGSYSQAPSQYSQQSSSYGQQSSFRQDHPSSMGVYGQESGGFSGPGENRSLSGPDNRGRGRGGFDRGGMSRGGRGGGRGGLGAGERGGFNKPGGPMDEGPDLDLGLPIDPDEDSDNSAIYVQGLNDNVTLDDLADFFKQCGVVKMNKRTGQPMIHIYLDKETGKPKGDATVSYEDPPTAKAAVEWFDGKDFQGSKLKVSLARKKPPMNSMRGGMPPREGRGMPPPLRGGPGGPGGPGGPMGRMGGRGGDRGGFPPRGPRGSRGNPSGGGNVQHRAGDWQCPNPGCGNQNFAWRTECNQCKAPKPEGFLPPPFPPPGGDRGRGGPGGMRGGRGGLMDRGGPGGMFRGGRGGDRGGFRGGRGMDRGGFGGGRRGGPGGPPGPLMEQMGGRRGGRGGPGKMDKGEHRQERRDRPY

Columns and labels:
[1] = target: T1, SPO11, endogenous in wild-type mouse testis (mouse (endogenous in testis)) (UniProt Q9WTK8); assay: co-IP; anti-SPO11-180 antibody on Dynabeads Protein-A, 4 °C; total testis extracts of juvenile (12 dpp) wild-type mice (FUS and PRDM9 weaker from adult testes) and of adult Spo11β-only or Spo11α-only knock-in mice, Pierce IP lysis buffer with benzonase; Western blot
T1 sequence: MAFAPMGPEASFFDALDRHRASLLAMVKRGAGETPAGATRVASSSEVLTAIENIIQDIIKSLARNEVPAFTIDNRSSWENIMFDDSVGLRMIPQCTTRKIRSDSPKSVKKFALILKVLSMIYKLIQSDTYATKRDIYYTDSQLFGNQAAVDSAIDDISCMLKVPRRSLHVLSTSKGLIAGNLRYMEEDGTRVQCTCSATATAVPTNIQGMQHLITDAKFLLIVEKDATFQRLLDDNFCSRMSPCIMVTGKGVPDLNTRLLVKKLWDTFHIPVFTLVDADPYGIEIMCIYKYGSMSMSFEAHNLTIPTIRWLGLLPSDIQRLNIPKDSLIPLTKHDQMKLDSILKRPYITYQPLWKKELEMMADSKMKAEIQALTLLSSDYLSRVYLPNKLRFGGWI

[2] = target: PRDM9-maltose binding protein (full-length Prdm9^Dom2 allele with MBP tag) (mouse) (UniProt Q96EQ9); assay: pull-down; PRDM9-MBP on amylose resin incubated 3 h at 4 °C with HEK293 lysate in HEK-lysis buffer (400 mM NaCl, 5 mM EDTA, 50 mM Hepes-NaOH pH 7.4, 1% Triton X-100); washed with PBS; Western blot for FUS; only the target purified
[3] = target: T2, SPO11α-GST recombinant protein (UniProt Q9WTK8); assay: pull-down; SPO11β-GST or SPO11α-GST on glutathione-agarose beads incubated 3 h at 4 °C with HEK293 lysate in HEK-lysis buffer (400 mM NaCl, 5 mM EDTA, 50 mM Hepes-NaOH pH 7.4, 1% Triton X-100); washed with PBS; Western blot for FUS; only the target purified
T2 sequence: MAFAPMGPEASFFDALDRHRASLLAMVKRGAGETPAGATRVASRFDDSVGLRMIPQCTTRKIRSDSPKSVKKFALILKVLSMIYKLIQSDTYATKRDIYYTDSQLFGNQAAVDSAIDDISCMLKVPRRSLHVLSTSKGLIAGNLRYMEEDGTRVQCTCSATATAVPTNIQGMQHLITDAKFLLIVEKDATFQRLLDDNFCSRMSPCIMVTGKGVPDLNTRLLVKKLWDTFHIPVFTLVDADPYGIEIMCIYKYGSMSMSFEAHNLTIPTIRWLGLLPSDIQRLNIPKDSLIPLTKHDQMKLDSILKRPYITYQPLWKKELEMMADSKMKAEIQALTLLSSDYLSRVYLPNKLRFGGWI

[4] = target: T3, SPO11β-GST recombinant protein (UniProt Q9WTK8); assay: as above
T3 sequence: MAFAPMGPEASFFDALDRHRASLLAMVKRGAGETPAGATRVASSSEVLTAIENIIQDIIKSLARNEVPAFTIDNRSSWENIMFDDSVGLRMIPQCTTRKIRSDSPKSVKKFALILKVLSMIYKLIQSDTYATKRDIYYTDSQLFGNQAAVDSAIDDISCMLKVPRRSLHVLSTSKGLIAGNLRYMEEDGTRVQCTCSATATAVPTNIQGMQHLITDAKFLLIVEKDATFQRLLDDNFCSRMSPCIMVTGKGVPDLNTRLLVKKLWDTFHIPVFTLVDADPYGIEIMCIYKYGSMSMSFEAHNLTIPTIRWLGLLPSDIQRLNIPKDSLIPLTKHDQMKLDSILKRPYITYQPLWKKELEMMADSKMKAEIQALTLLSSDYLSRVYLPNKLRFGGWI

[5] = target: FUS (fused in sarcoma)/TLS (translocated in liposarcoma), endogenous in mouse testis (mouse (endogenous in testis)) (UniProt P56959); assay: co-IP; anti-FUS antibody on Dynabeads Protein-A, 4 °C; extracts of mouse testes (juvenile wild type, preleptotene/leptotene/zygotene enriched cells, Prdm9 transgenic and Spo11-/- mice) in Pierce IP lysis buffer with benzonase; Western blot
[6] = target: T1, SPO11, endogenous in wild-type mouse testis (mouse (endogenous in testis)); assay: co-IP; anti-SPO11-180 antibody on Dynabeads Protein-A; total testis extract of an adult (6-month-old) wild-type mouse, with benzonase; Western blot
[7] = target: FUS (fused in sarcoma)/TLS (translocated in liposarcoma), endogenous in mouse testis (mouse (endogenous in testis)) (UniProt P56959); assay: co-IP; anti-FUS antibody on Dynabeads Protein-A, 4 °C; extracts of mouse testes (juvenile wild type, preleptotene/leptotene/zygotene enriched cells, Prdm9 transgenic and Spo11-/- mice) in Pierce IP lysis buffer with benzonase; Western blot; remark: listed apart in the source
[8] = target: T1, SPO11, endogenous in wild-type mouse testis (mouse (endogenous in testis)); assay: condition: only in fractions enriched in pachytene/diplotene cells or round spermatids; co-IP; anti-SPO11-180 antibody on Dynabeads Protein-A; extracts of fractions enriched in pachytene/diplotene cells or round spermatids from adult mice, with benzonase; Western blot

Molecule: FUS/TLS, endogenously expressed in HEK293 cells (from UniProt P35637 1-526)
binding [2]: binds | binding [3]: binds | binding [4]: binds

Molecule: PR domain-containing 9 (PRDM9), endogenous in mouse testis (from UniProt Q96EQ9 1-843)
binding [5]: binds | binding [1]: binds

Results, then the molecule that gave them:

binding [1]: binds
Molecule: EWS, endogenous in mouse testis (from UniProt Q61545 1-655)

binding [6]: binds weakly | binding [7]: binds | binding [1]: binds | binding [8]: no binding
B1: REC114, endogenous in mouse testis (protein, UniProt Q9CWH4 1-259)
chain: MSEAGNVASGLGLPGEVSQWSLKRYGRFMLLDNVGSPGPSSEAAAAGSPTWKVFESSEESGSLVLTIVVSGHFFISQGQTLLEGFSLIGSKNWLKIVRRMDCLLFGTTIKNKSRMFRVQFSGESKEEALERCCGCVQTLAQYVTVQEPDSTTQELQQSQGPREAGESQGKDPLQQGPSLTLEQHVCMAAGAGVLQERTSVTHRAQSILAPEKLTLAYEGSSWGTEELGPFLRLCLMDQNFPAFVEEVEKELKKITGLRN
